Laboratory results published in PubChem BioAssay AID463173 (ICCB-Longwood Screening Facility, Harvard Medical School, 2010).
Hit rate of the full screen: of about 52,000 compounds, about 1,700 (3.3%) were called active. Cut-off read from the data, not from the text of the source: active = survival mostly below about 52% (no sharp cut-off); inactive = mostly above about 56%. Some of the results follow.

Each compound was assayed on Wild type (assay: S. aureus survival, RN4220 and DeltatarO strains – OD600, teichoic acid synthesis inhibitors, primary screen (AID 463173)). Conditions: S. aureus RN4220 wild type/DeltatarO growth, OD600, 18 h, active compounds read low, screened at 18.75 µg/mL (by protocol).
For O=C(NC1CC(=O)N(c2cccc(F)c2)C1)c1ccc(S(=O)(=O)N2CCCCC2)cc1 (stereo not given), the survival was inactive: 77%. In the case of COc1ccc(C(=O)Nc2cc(-c3nc4ncccc4o3)ccc2C)cc1Br, the survival is reported as inactive: 75%. With Cc1ccc(OCC(=O)Nc2nnc(SCc3cc(=O)n4cc(C)ccc4n3)s2)cc1 the survival was active: 1%. With Cc1noc(-c2ccc(N(C)Cc3ccccc3)c([N+](=O)[O-])c2)n1 the survival was inactive: 79%. COC(=O)c1ccccc1NC(=O)CCn1c(=O)c2cccn2c2cccnc21 was tested, and the survival was inactive: 88%. In the case of CC(=O)Nc1ccc(C)cc1-c1nc2ccccc2n(Cc2cccc(Br)c2)c1=O, the survival is reported as inactive: 84%. In the case of COc1ccc(OCc2nc(-c3ccc(OC)c(OC)c3)no2)cc1, the survival is reported as inactive: 70%. CC(=O)Nc1c(C)nn(-c2ccccc2)c1N1CCC(C(=O)Nc2ccc(C)cc2Cl)CC1 was tested, and the survival was inactive: 71%. COc1cccc(-n2ccnc2SCC(=O)Nc2nc3ccc(C)cc3s2)c1 was tested, and the survival was inactive: 136%. With CCc1ccc(NS(=O)(=O)c2cc(Br)cc3c2N(C(C)=O)CC3)cc1 the survival was inactive: 102%. In the case of CC(=O)Nc1ccc(NC(=O)c2ccc3c(c2)CCN3S(=O)(=O)c2ccc(Cl)cc2)cc1, the survival is reported as inactive: 115%. In the case of COc1ccc(CCNc2oc(/C=C/c3ccc(OC)c(OC)c3)nc2C#N)cc1, the survival is reported as inactive: 105%. CCCc1nc2nc(C)c(NS(=O)(=O)c3ccc(C)c(C)c3)c(=O)n2[nH]1 was tested, and the survival was inactive: 122%. For CCOC(=O)C1CCCN(C(=O)c2ccc(C)c(NC(=O)c3nsc4ccccc34)c2)C1 (stereo not given), the survival was inactive: 123%. In the case of COc1cccc(NC(=O)CSc2nnc3[nH]c(=O)cc(-c4ccccc4)n23)c1, the survival is reported as inactive: 153%. Cc1ccc2oc(-c3cc(NC(=O)Cc4ccccc4)ccc3Cl)nc2c1 was tested, and the survival was inactive: 70%. In the case of c1ccc(Cn2nnnc2C(c2cccnc2)N2CCN(c3ccccc3)CC2)cc1 (stereo not given), the survival is reported as inactive: 113%. In the case of CCCCOc1ccc(C(=O)NCCS(=O)(=O)N2CCN(c3ccccc3OC)CC2)cc1, the survival is reported as inactive: 69%. In the case of CN(C)c1ccc(C(CNC(=O)c2ccccc2Cl)N2CCc3ccccc32)cc1 (stereo not given), the survival is reported as inactive: 32%. In the case of Cc1ccc(NC(=O)Nc2nc3c(s2)CCCCCC3)cc1C, the survival is reported as inactive: 69%. For O=C(COc1ccc(Cl)cc1)Nc1ccc(O)c(-c2nc3ccccc3s2)c1, the survival was inactive: 69%. For Cc1ccc(Cn2c(C(=O)O)c(CNCCc3cccs3)c3ccc(C)cc32)cc1, the survival was inactive: 85%. With O=C(NC1CC(=O)N(c2ccc(F)cc2)C1)c1ccc(S(=O)(=O)N2CCCC2)cc1 (stereo not given) the survival was inactive: 66%. CCN(C(=O)CSc1nc2ccccc2nc1Cc1cccc(OC)c1)c1cccc(C)c1 was tested, and the survival was active: -2%. With COc1ccccc1NC(=O)c1ccc2[nH]c(C)cc(=O)c2c1 the survival was inactive: 87%. Cc1cc(Br)ccc1NC(=O)COc1cc(=O)n(C)c2ccccc12 was tested, and the survival was inactive: 119%. In the case of Cc1ccccc1NC(=O)c1c(C)oc2ccc(O)c(CN3CCCC(C)C3)c12 (stereo not given), the survival is reported as inactive: 115%. For COc1cccc(CNC(=O)CSc2nc3ccccc3nc2Cc2ccccc2)c1, the survival was inactive: 66%. O=c1c2sc3ccccc3c2n(Cc2ccccc2F)c(=O)n1-c1ccccc1Cl was tested, and the survival was inactive: 81%. With CCN(CC)S(=O)(=O)c1ccc2nc(NC(=O)c3ccccc3OC)sc2c1 the survival was inactive: 113%. Cc1nnc(N2CCC(C(=O)NCc3ccc(F)cc3)CC2)c2nn(-c3ccc(Cl)cc3)c(C)c12 was tested, and the survival was inactive: 126%. For COc1cc2c(cc1OC)C(c1ccc(F)cc1)N(c1ccccc1)C(=O)C2 (stereo not given), the survival was inactive: 92%. In the case of Cc1ccc2c(c1)cc(C(=O)NCc1ccc(F)cc1)n2C, the survival is reported as inactive: 96%. With NCC(O)CNCCc1ccccc1 (stereo not given) the survival was inactive: 107%. In the case of CCOCC(=O)Nc1ccc(-c2cn3c(C)csc3n2)cc1, the survival is reported as inactive: 134%. Cc1ccc2[nH]c(=O)c(-c3nc4c(C)cccn4c3NCc3ccco3)cc2c1 was tested, and the survival was inactive: 96%. COc1ccccc1N1CCN(c2ccc(=O)n(CC(=O)O)n2)CC1 was tested, and the survival was inactive: 77%. In the case of COc1cccc(CNc2ncnc3c2nnn3C)c1, the survival is reported as inactive: 79%. CNC(=O)C1CCC(Cn2c(=O)c3sccc3n(CC(=O)N3CCCC3)c2=O)CC1 (stereo not given) was tested, and the survival was inactive: 77%. With COc1cccc(-c2csc(N3CCN(C(=S)NCc4ccco4)CC3)n2)c1 the survival was inactive: 108%. For COc1ccccc1NC(=O)C1=C(C)NC(=S)NC1C (stereo not given), the survival was inactive: 108%. With CCN(C(=O)CSc1nc(-c2ccccc2)no1)c1cccc(C)c1 the survival was active: -2%. For Cc1cccc2cc(CN(C(=O)c3cccc(Cl)c3)c3ccccc3)c(=O)[nH]c12, the survival was inactive: 94%. For COc1cccc(C2CC(=O)Nc3c2c(=O)[nH]c2ncnn32)c1OC (stereo not given), the survival was inactive: 74%. With COc1ccccc1Nc1nn2c(=O)c3ccc(C(=O)NC4CCC(C)CC4)cc3nc2s1 (stereo not given) the survival was inactive: 127%. In the case of O=C(C1CCN(S(=O)(=O)c2ccc(Br)s2)CC1)N1CCN(c2ccc(F)cc2)CC1, the survival is reported as inactive: 72%. For COc1ccccc1C(=O)Nc1cccc(OCc2cc(=O)n3c4c(sc3n2)CCCC4)c1, the survival was inactive: 70%. For CCOc1ccc(C2C(C(N)=O)=C(C)Nc3nc(-c4ccc(OC)cc4)nn32)cc1 (stereo not given), the survival was inactive: 76%. For CC(C)c1ccc(S(=O)(=O)c2nnn3c2nc(NCc2cccs2)c2sccc23)cc1, the survival was inactive: 76%. For O=C(NCC(c1ccc2c(c1)OCO2)N1CCN(c2ccccc2)CC1)C(=O)Nc1ccccc1 (stereo not given), the survival was inactive: 71%. Cc1cc2ccccc2n1CCNC(=O)c1ccccc1F was tested, and the survival was inactive: 81%. O=c1c2sc3ccccc3c2n(Cc2ccc(F)cc2)c(=O)n1Cc1ccco1 was tested, and the survival was inactive: 86%. With O=C(OCc1cc(=O)n2nc(C3CC3)sc2n1)c1ccc(NC(=O)c2ccccc2Cl)cc1 the survival was inactive: 99%. For COc1ccc(C(=O)Nc2ccccc2)cc1S(=O)(=O)Nc1ccc(Br)cc1, the survival was inactive: 83%. For CCc1ccc2oc(C(=O)Nc3cc(Cl)ccc3OC)cc(=O)c2c1, the survival was inactive: 80%. COc1ccc(-c2nnn(CC(=O)N(Cc3ccccc3)C(C)C(=O)NC3CCCC3)n2)cc1OC (stereo not given) was tested, and the survival was inactive: 103%. With Cc1c(C(=O)Nc2ccccc2)sc2nc(-c3cc4ccccc4oc3=O)[nH]c(=O)c12 the survival was inactive: 95%. In the case of O=C(C1CCCN(S(=O)(=O)c2ccc(Cl)cc2)C1)N1CCCC1 (stereo not given), the survival is reported as inactive: 105%. In the case of O=C(Nc1cccc(C(=O)N2CCN(c3ccccc3)CC2)c1)c1nsc2ccccc12, the survival is reported as inactive: 68%. CCc1ccc(C2=C(C)C(N3CCC(C(=O)Nc4ccc(F)cc4)CC3)=NS2(=O)=O)cc1 was tested, and the survival was inactive: 59%. With O=C(Nc1ccc2nc(SCC(=O)N3CCCc4ccccc43)sc2c1)c1ccccc1F the survival was inactive: 83%. In the case of C=CCc1c(C)nc(-c2ccccc2)nc1NN, the survival is reported as inactive: 118%. Fc1ccc(Nc2nc(-c3cccc(Cl)c3)c3c(n2)-c2ccccc2OC3)cc1 was tested, and the survival was inactive: 100%. For Cc1ccc(NC(=O)CCn2nc(-c3ccccc3)c3ccccc3c2=O)c(C)c1, the survival was inactive: 75%. With CC(C)n1c(SCC(=O)N2CCc3ccccc32)nc2c1c(=O)n(C)c(=O)n2C the survival was inactive: 106%. For COc1ccc2c(c1)c1c(c(=O)n(-c3ccc(OC)c(OC)c3)c(=O)n1Cc1ccc(C)cc1)n2C, the survival was inactive: 73%. For COc1ccc(C2CC(=O)c3cnc4c(-c5ccccc5)c(C)nn4c3C2)c(OC)c1 (stereo not given), the survival was inactive: 71%. With CCCCNC(=O)CCCn1c(=O)c2ccccc2n(Cc2ccc(Cl)cc2)c1=O the survival was inactive: 147%. In the case of Cc1[nH]c2ccccc2c1/C=C(\C#N)C(=O)NCc1ccco1, the survival is reported as inactive: 120%. With CC(C)(C)OC(=O)N1CCC(c2c(C(=O)N3CCOCC3)cnn2-c2ccccc2Cl)CC1 the survival was inactive: 77%. For COc1ccccc1CNC(=O)CCCn1c(=O)c2cccn2c2ccccc21, the survival was inactive: 95%. For Cc1cc2c(cc1C)-n1c(-c3ccccc3)c3c(=O)n(C)c(=O)n(C)c3c1C(c1ccco1)N2 (stereo not given), the survival was inactive: 88%. COc1ccc(-c2nc(SCC(=O)Nc3cccc(C(C)=O)c3)n[nH]2)cc1 was tested, and the survival was inactive: 133%. For CCc1c(C)nc2nncn2c1Nc1cccc(C)c1, the survival was inactive: 91%. N#Cc1ccccc1S(=O)(=O)N1CCC(Oc2ccc(-n3cnnn3)cc2)CC1 was tested, and the survival was inactive: 83%. With O=C(Cc1ccccc1)Nc1cc(-c2nc3cc(Cl)ccc3o2)ccc1Cl the survival was inactive: 79%. In the case of COc1cccc(/C=C2/SC(=O)N(C)C2=O)c1O, the survival is reported as inactive: 109%. For COc1ccc(Cc2nc3ccc(C(=O)NCc4cc(Br)ccc4OC)cc3o2)cc1, the survival was inactive: 92%. With Fc1ccc(-c2noc3ncnc(N4CCCCC4)c23)cc1 the survival was inactive: 135%. Cc1ccc(C)c(NC(=O)Cn2nnc(C(=O)NCc3ccco3)c2N)c1 was tested, and the survival was inactive: 99%. CNC(=O)C1CCN(C(=O)N2CC(C)Oc3ccc(C)cc32)CC1 (stereo not given) was tested, and the survival was inactive: 86%. In the case of O=C(CN1CCN(c2cccc(Cl)c2)CC1)Nc1nccs1, the survival is reported as inactive: 104%. For O=S(=O)(Nc1ccc(O)cc1)c1cccs1, the survival was inactive: 101%. For COc1ccc(CCC(=O)NCc2nc3cccnc3n2Cc2ccc(OC)cc2)cc1, the survival was inactive: 90%. In the case of CCOC(=O)c1c(NC(=O)CS(=O)(=O)c2ccc(Cl)cc2)sc2c1CCCC2, the survival is reported as inactive: 98%. With Cc1ccccc1CNC(=O)C1CCCN(c2nnc(-n3c(C)ccc3C)s2)C1 (stereo not given) the survival was inactive: 85%. COc1ccccc1N(C)C(=O)Cn1c(=O)oc2cc(S(=O)(=O)N3CCCC3)ccc21 was tested, and the survival was inactive: 127%. For CCOC(=O)c1c(NC(=O)c2cc(=O)c3c(C)cc(C)cc3o2)sc2c1CCC2, the survival was inactive: 83%. COc1ccc(-c2cc(C(=O)OCC(=O)c3cccc(OC)c3)c3cccc(Cl)c3n2)cc1 was tested, and the survival was inactive: 67%. COc1ccc(NC(=O)C2CCN(c3nc(-c4ccc(OC)c(OC)c4)no3)CC2)cc1Cl was tested, and the survival was inactive: 85%.
